{"source": "the supplement of paper PMC8748497", "note": "The list shows a part of the results.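 How the source made its calls: active = GRHL reporter fold change of at least 2 over DMSO at 10 µM; inactive = below 2-fold.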 Single values are uncertain, as repeats are few or missing.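 Further: stable HEK293 line carrying repeated GRHL consensus sites upstream of a minimal promoter driving luciferase, luminescence read 24 h post-treatment, normalized to 0.5% DMSO vehicle wells.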"}
{"system": "HEK293 GRHL-luciferase reporter", "test": "GRHL luciferase reporter activity, fold change over DMSO control; higher = stronger GRHL reporter activation", "conditions": "10 µM; 24 h"}
{"smiles": "CC/C(=C(\\c1ccccc1)c1ccc(OCCN(C)C)cc1)c1ccccc1", "GRHL luciferase reporter activity": "inactive: 0.488"}
{"smiles": "CN(C)/N=N/c1[nH]cnc1C(N)=O", "GRHL luciferase reporter activity": "inactive: 0.853"}
{"smiles": "O=C(O)/C=C/c1ccc(Cn2ccnc2)cc1", "GRHL luciferase reporter activity": "inactive: 0.823"}
{"smiles": "O=S(=O)(O)CCSSCCS(=O)(=O)O", "GRHL luciferase reporter activity": "inactive: 1.14"}
{"smiles": "O=C(O)[C@@H]1CCCN1", "GRHL luciferase reporter activity": "inactive: 0.826"}
{"smiles": "COc1ccc(-c2cc(=O)c3ccccc3o2)cc1", "GRHL luciferase reporter activity": "active: 2.12"}
{"smiles": "CCCc1nc(C(C)(C)O)c(C(=O)O)n1Cc1ccc(-c2ccccc2-c2nnn[nH]2)cc1", "GRHL luciferase reporter activity": "inactive: 1.15"}
{"smiles": "OCCOCCN1CCN(C(c2ccccc2)c2ccc(Cl)cc2)CC1", "note": "(configuration not stated)", "GRHL luciferase reporter activity": "inactive: 0.958"}
{"smiles": "CC(=O)Oc1c(C)c(C)c2c(c1C)CCC(C)(CCCC(C)CCCC(C)CCCC(C)C)O2", "note": "(stereo not drawn) [alpha-TOCHOPHERYL ACETATE [4mM]]", "GRHL luciferase reporter activity": "inactive: 0.923"}
{"smiles": "O=C(Oc1cccc2cccnc12)c1ccccc1", "GRHL luciferase reporter activity": "inactive: 0.872"}
{"smiles": "CC(=O)OC(C)C[N+](C)(C)C", "note": "(configuration not stated)", "GRHL luciferase reporter activity": "inactive: 0.927"}
{"smiles": "Cc1[nH]c(=O)c(C#N)cc1-c1ccncc1", "GRHL luciferase reporter activity": "inactive: 1.09"}
{"smiles": "C[C@H]1[C@@H](O)O[C@@H]2O[C@@]3(C)CC[C@H]4[C@H](C)CC[C@@H]1[C@@]24OO3", "GRHL luciferase reporter activity": "active: 2.64"}
{"smiles": "C=CCCCCCCCCCCCc1ccco1", "GRHL luciferase reporter activity": "inactive: 0.895"}
{"smiles": "COCCc1ccc(OCC(O)CNC(C)C)cc1", "note": "(configuration not stated)", "GRHL luciferase reporter activity": "inactive: 0.858"}
{"smiles": "CC(=O)[C@H]1CC[C@H]2[C@@H]3CC=C4C[C@@H](OC(=O)CCC(=O)O)CC[C@]4(C)[C@H]3CC[C@]12C", "GRHL luciferase reporter activity": "inactive: 0.998"}
{"smiles": "CC(CCc1ccc(O)cc1)NCC(O)c1ccc(O)cc1", "note": "(configuration not stated)", "GRHL luciferase reporter activity": "inactive: 0.953"}
